Among the data in the supplement of paper PMC11741623 are yeast fitness gain values, retold here.

Some of the results follow. Interaction screen of human proteins with wild-type SARS-CoV-2 proteins by split-DHFR complementation in yeast, 1 µg/mL methotrexate. Value = fitness of the pair (three or more lineages) minus that of the viral protein without a human partner, on a scale set by negative (0) and fused positive (1) controls, mean of up to three cultures; higher = more likely to interact. Active = false discovery rate below 0.05 (one-sided t-test) in at least one culture. Nearly all pairs are not hits, and differences among them are mostly noise (correlation between cultures about 0.3); most hits were seen in one culture only. Human sequences are the Swiss-Prot entries looked up by gene name; the clone may be another isoform. NSP2 values were corrected by the authors for a growth advantage. Listed are human proteins with a hit and a random twelfth of the others.

Sequences and labels used below:
B1: ERMP1, Q7Z2K6 (protein)
chain: MEWGSESAAVRRHRVGVERREGAAAAPPPEREARAQEPLVDGCSGGGRTRKRSPGGSGGASRGAGTGLSEVRAALGLALYLIALRTLVQLSLQQLVLRGAAGHRGEFDALQARDYLEHITSIGPRTTGSPENEILTVHYLLEQIKLIEVQSNSLHKISVDVQRPTGSFSIDFLGGFTSYYDNITNVVVKLEPRDGAQHAVLANCHFDSVANSPGASDDAVSCSVMLEVLRVLSTSSEALHHAVIFLFNGAEENVLQASHGFITQHPWASLIRAFINLEAAGVGGKELVFQTGPENPWLVQAYVSAAKHPFASVVAQEVFQSGIIPSDTDFRIYRDFGNIPGIDLAFIENGYIYHTKYDTADRILTDSIQRAGDNILAVLKHLATSDMLAAASKYRHGNMVFFDVLGLFVIAYPSRIGSIINYMVVMGVVLYLGKKFLQPKHKTGNYKKDFLCGLGITLISWFTSLVTVLIIAVFISLIGQSLSWYNHFYVSVCLYGTATVAKIILIHTLAKRFYYMNASAQYLGEVFFDISLFVHCCFLVTLTYQGLCSAFISAVWVAFPLLTKLCVHKDFKQHGAQGKFIAFYLLGMFIPYLYALYLIWAVFEMFTPILGRSGSEIPPDVVLASILAGCTMILSSYFINFIYLAKSTKKTMLTLTLVCAITFLLVCSGTFFPYSSNPANPKPKRVFLQHMTRTFHDLEGNAVKRDSGIWINGFDYTGISHITPHIPEINDSIRAHCEENAPLCGFPWYLPVHFLIRKNWYLPAPEVSPRNPPHFRLISKEQTPWDSIKLTFEATGPSHMSFYVRAHKGSTLSQWSLGNGTPVTSKGGDYFVFYSHGLQASAWQFWIEVQVSEEHPEGMVTVAIAAHYLSGEDKRSPQLDALKEKFPDWTFPSAWVCTYDLFVF
B2: C11orf87, Q6NUJ2 (protein)
chain: MSARAPKELRLALPPCLLNRTFASPNASGSGNTGARGPGAVGSGTCITQVGQQLFQSFSSTLVLIVLVTLIFCLIVLSLSTFHIHKRRMKKRKMQRAQEEYERDHCSGSRGGGGLPRPGRQAPTHAKETRLERQPRDSPFCAPSNASSLSSSSPGLPCQGPCAPPPPPPASSPQGAHAASSCLDTAGEGLLQTVVLS
B3: OR9Q1, Q8NGQ5 (protein)
chain: MAEMNLTLVTEFLLIAFTEYPEWALPLFLLFLFMYLITVLGNLEMIILILMDHQLHAPMYFLLSHLAFMDVCYSSITVPQMLAVLLEHGAALSYTRCAAQFFLFTFFGSIDCYLLALMAYDRYLAVCQPLLYVTILTQQARLSLVAGAYVAGLISALVRTVSAFTLSFCGTSEIDFIFCDLPPLLKLTCGESYTQEVLIIMFAIFVIPASMVVILVSYLFIIVAIMGIPAGSQAKTFSTCTSHLTAVSLFFGTLIFMYLRGNSDQSSEKNRVVSVLYTEVIPMLNPLIYSLRNKEVKEALRKILNRAKLS
B4: OTUB2, Q96DC9 (protein)
chain: MSETSFNLISEKCDILSILRDHPENRIYRRKIEELSKRFTAIRKTKGDGNCFYRALGYSYLESLLGKSREIFKFKERVLQTPNDLLAAGFEEHKFRNFFNAFYSVVELVEKDGSVSSLLKVFNDQSASDHIVQFLRLLTSAFIRNRADFFRHFIDEEMDIKDFCTHEVEPMATECDHIQITALSQALSIALQVEYVDEMDTALNHHVFPEAATPSVYLLYKTSHYNILYAADKH

The target of the first assay is SARS-CoV-2 ORF3B. In words: yeast fitness gain over the viral ORF with no human partner (scaled fitness); higher = more likely to interact. How it is done: (§1)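 Split mouse DHFR complementation in pooled diploid yeast: human ORFeome clones carry one fragment and viral ORFs the other; barcoded lineages compete in 1 µg/mL methotrexate and fitness is read by barcode sequencing in up to three cultures.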
As to B1, the yeast fitness gain was inactive: -0.0543.

In another assay the target is SARS-CoV-2 ORF6. Described as above. How it is done: as §1
As for B1, the yeast fitness gain was inactive: -0.122.
The same measure, in the same setting: the value for B4 was inactive: 0.00169.

The target of another assay is SARS-CoV-2 ORF10. Described as above. As for the experimental part:
as §1
For the molecule B2, the yeast fitness gain is inactive: 0.0425.

The target in the next assay is SARS-CoV-2 ORF9B. Described as above. How it is done:
as §1
Regarding B2, the yeast fitness gain is inactive: -0.0389.
The same measure, in the same setting: for B3 the value was inactive: -0.161; for B4, inactive: -0.12.

A further assay addresses SARS-CoV-2 S. The description is as above. How it is done:
as §1
Regarding B2, the yeast fitness gain was inactive: -0.0424.
On the same count and under the same terms, for B3 the value was inactive: -0.228.

The target in another assay is SARS-CoV-2 NSP2. The assay is described as above. How it is done:
as §1
For B3, the yeast fitness gain is inactive: -0.314.
Same read-out and setting: the value for B4 was inactive: -0.0546.

Another assay has as its target SARS-CoV-2 NSP5. The assay is described as above. How it is done:
as §1
In the case of B3, the yeast fitness gain is inactive: -0.116.
Still for that read-out and setting: the value for B4 was inactive: 0.0149.

The target of a further assay is SARS-CoV-2 ORF8. The assay is described as above. How it is done: as §1
As for B3, the yeast fitness gain was inactive: 0.0552.
In the case of B4, the yeast fitness gain was inactive: 0.00745.

For a further assay, the target named is SARS-CoV-2 ORF9Bwu (the 73-codon ORF). The assay is described as above. As for the experimental part: as §1
With B3, the yeast fitness gain is inactive: -0.00299.
